Assay results published in the supplement of paper PMC10126150.
Sequences with one replicate were seen in a single cluster, so their values are uncertain.

tested on: ATP; experiment: switch fluorescence ratio, 500 uM ATP over buffer (Cy3 cluster intensity, sum of 5 cycles each) (fold (ratio)); higher = stronger signal-on switching upon ATP binding; sequences stand for … in TCGTCGGCAGCGTCAGATGTGTATAAGAGACAGTTTTTTTTTTTTTTTTTTTTTTTTT…TC; conditions: aptamer strand: ATP DNA aptamer (quencher-CACCTGGGGGAGTATTGCGGAGGAAGG + anchor), 100 nM annealed; ATP concentration: 500 uM; one replicate
How it was run: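 The fluorescence ratio divides summed target-cycle Cy3 intensity by summed buffer-cycle Cy3 intensity for each cluster and is averaged per switch-domain sequence. Cy3-labelled switching-strand clusters on a modified Illumina MiSeq flow-cell were annealed to 100 nM quencher-labelled ATP aptamer, then imaged in selection buffer and again after 15 min with 500 uM ATP at 22 °C. Five such cycles were run, with NaOH stripping and re-annealing between them, and clusters outside 100-1000 RFU were excluded.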
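Note: ATP exposure 15 min at 22 °C before imaging.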

Row | Sequence | switch fluorescence ratio
1 | ATTCTGGCAG | 1.02
2 | ATTCTTACGA | 1.02
3 | ATTCTTCA | 1.06
4 | ATTCTTGCTC | 1.03
5 | ATTCTTGGAT | 1.01
6 | ATTGAAAATC | 1.06
7 | ATTGAAGCCG | 0.941
8 | ATTGACACGG | 1.19
9 | ATTGACCCGC | 1.09
10 | ATTGACCGTC | 1.03
11 | ATTGACGTAG | 0.943
12 | ATTGAGGACG | 1.07
13 | ATTGAGTCA | 0.995
14 | ATTGAGTTG | 0.999
15 | ATTGATATAC | 1.1
16 | ATTGATTTA | 1.01
17 | ATTGCACGGG | 1.03
18 | ATTGCCATTT | 1.24
19 | ATTGCCGGGC | 1
20 | ATTGCCTTCC | 1.07
21 | ATTGCCTTGT | 1.02
22 | ATTGCGAATA | 0.978
23 | ATTGCGCATC | 1.19
24 | ATTGCGCATT | 1.03
25 | ATTGCGGGCG | 1.03
26 | ATTGCTAC | 1.08

Row | Sequence | switch fluorescence ratio
27 | ATTGCTATCG | 1
28 | ATTGCTCCT | 0.999
29 | ATTGCTGAAT | 1.02
30 | ATTGCTGCTA | 0.957
31 | ATTGCTTAGC | 0.978
32 | ATTGCTTCT | 1.01
33 | ATTGCTTGGA | 0.956
34 | ATTGGACTCC | 1.02
35 | ATTGGCATGG | 1.02
36 | ATTGGCCCTT | 0.958
37 | ATTGGCCGGC | 1.11
38 | ATTGGCCGTT | 1.02
39 | ATTGGCGGAC | 1.03
40 | ATTGGGACGT | 0.957
41 | ATTGGGCCTC | 1.02
42 | ATTGGGGA | 0.977
43 | ATTGGGGTAG | 0.962
44 | ATTGGTAGCC | 1.03
45 | ATTGGTTCCT | 1
46 | ATTGTACCAG | 1.02
47 | ATTGTAGCTT | 1.05
48 | ATTGTCGTGC | 1.05
49 | ATTGTCGTTT | 1.01
50 | ATTGTCTAT | 1.01
51 | ATTGTGATAC | 1.32
52 | ATTGTGATTT | 0.986

Row | Sequence | switch fluorescence ratio
53 | ATTGTGGAAT | 0.984
54 | ATTGTGGTC | 1.02
55 | ATTGTGTCAT | 1.04
56 | ATTGTGTTAC | 1.05
57 | ATTGTTA | 1.01
58 | ATTGTTACTA | 0.997
59 | ATTTAAATGG | 1.03
60 | ATTTAATCAT | 0.972
61 | ATTTACCGCA | 1.29
62 | ATTTACGGA | 1.08
63 | ATTTACGGAC | 1.48
64 | ATTTAGAAAA | 0.995
65 | ATTTAGAATA | 0.989
66 | ATTTAGATCC | 0.969
67 | ATTTAGTAAT | 0.983
68 | ATTTATATAC | 1.04
69 | ATTTATCCG | 0.989
70 | ATTTATGATG | 0.974
71 | ATTTATGGCT | 1.01
72 | ATTTATTGTC | 0.945
73 | ATTTCAATGA | 1.01
74 | ATTTCAGCCT | 1.06
75 | ATTTCCTAGT | 1.03
76 | ATTTCGCCGC | 1.14
77 | ATTTCGCTCG | 0.986
78 | ATTTCGTGAA | 1

Row | Sequence | switch fluorescence ratio
79 | ATTTCGTGGC | 0.991
80 | ATTTCTCGCA | 1.29
81 | ATTTGAATCT | 1.04
82 | ATTTGACCTG | 0.97
83 | ATTTGACGG | 1.07
84 | ATTTGATGCA | 1.01
85 | ATTTGCAGCG | 0.996
86 | ATTTGCGT | 0.975
87 | ATTTGCGTAT | 1.03
88 | ATTTGGAGA | 1.04
89 | ATTTGGCCCT | 1.06
90 | ATTTGGGCCG | 1.02
91 | ATTTGGTCAC | 0.976
92 | ATTTGGTTTG | 1.02
93 | ATTTGTGGGC | 1.05
94 | ATTTTAG | 0.988
95 | ATTTTAGCTA | 1.05
96 | ATTTTATTGC | 0.922
97 | ATTTTCC | 1.06
98 | ATTTTGTGCA | 1.04
99 | ATTTTTCCA | 1.03
100 | ATTTTTCCT | 1.05
101 | ATTTTTTATA | 0.964
102 | CAAAAAAGC | 1.04
103 | CAAAAAGGGT | 0.925
104 | CAAAAATAAT | 0.964

Row | Sequence | switch fluorescence ratio
105 | CAAAACTACG | 1.02
106 | CAAAAGAAAT | 0.992
107 | CAAAAGACCA | 0.987
108 | CAAAAGCTTT | 1.18
109 | CAAAAGGCGG | 1.01
110 | CAAAAGGGCA | 1.01
111 | CAAAAGTCCA | 0.959
112 | CAAAATGAGT | 1.02
113 | CAAAATTCTG | 1.03
114 | CAAACAATTT | 1
115 | CAAACAGCGT | 0.99
116 | CAAACCACAC | 1.4
117 | CAAACCATCA | 1.11
118 | CAAACCGGTG | 1.07
119 | CAAACGAGGA | 1.02
120 | CAAACGGGAT | 1.09
121 | CAAACGGTCA | 0.985
122 | CAAACTGTTA | 1.04
123 | CAAACTTTGA | 1.03
124 | CAAAGCGCAG | 1.02
125 | CAAAGGACC | 0.985
126 | CAAAGGTCCA | 1.07
127 | CAAAGTGGGA | 0.957
128 | CAAAGTTG | 1.03
129 | CAAATATAC | 1.41
130 | CAAATATATC | 0.96

Row | Sequence | switch fluorescence ratio
131 | CAAATATCGA | 0.995
132 | CAAATCGGAG | 0.972
133 | CAAATCTTGA | 0.968
134 | CAAATGGAAC | 1.04
135 | CAAATTACGC | 1.07
136 | CAACAAAACA | 1.16
137 | CAACAAAACT | 1.01
138 | CAACAAGGCG | 1.02
139 | CAACAATGGG | 0.976
140 | CAACAATTG | 0.972
141 | CAACCCAACA | 1.05
142 | CAACCCCCGA | 1.33
143 | CAACCCGTTT | 0.998
144 | CAACCGGTCC | 1.37
145 | CAACCGTAGA | 1.09
146 | CAACGGATAA | 1.02
147 | CAACGGATTG | 0.973
148 | CAACGGTAAC | 1.27
149 | CAACGTATTG | 1.04
150 | CAACGTCAC | 1.92
151 | CAACGTCGTG | 0.973
152 | CAACGTTGAG | 0.947
153 | CAACTACCA | 1.05
154 | CAACTCGAGT | 1.03
155 | CAACTCTGTG | 0.986
156 | CAACTGAAGA | 0.969

Row | Sequence | switch fluorescence ratio
157 | CAACTGCGGT | 1
158 | CAACTGGTGG | 1
159 | CAACTGTAG | 0.954
160 | CAACTGTCTA | 0.968
161 | CAACTTCAGA | 1
162 | CAACTTTCGA | 1.04
163 | CAACTTTTCT | 1.03
164 | CAACTTTTGT | 1.01
165 | CAAGAATT | 1.01
166 | CAAGACGCCC | 1.41
167 | CAAGACGGGA | 0.976
168 | CAAGAGGCTG | 1.03
169 | CAAGATGTCG | 0.996
170 | CAAGCAAAAG | 1.51
171 | CAAGCAAT | 2.42
172 | CAAGCAATAG | 4.35
173 | CAAGCAATT | 2.05
174 | CAAGCGAGTT | 0.968
175 | CAAGCGCCGA | 0.99
176 | CAAGGACCG | 0.978
177 | CAAGGGCGCC | 1.02
178 | CAAGGTAGGC | 0.974
179 | CAAGGTTGGT | 0.978
180 | CAAGTAGGAT | 1.01
181 | CAAGTGACGC | 1.06
182 | CAAGTGCGCG | 0.972

Row | Sequence | switch fluorescence ratio
183 | CAAGTGGGAG | 1.01
184 | CAATACATT | 1.01
185 | CAATAGAAAC | 1.08
186 | CAATAGCTGA | 1.01
187 | CAATAGGCTT | 1.02
188 | CAATAGTGCC | 0.965
189 | CAATATGGTG | 1.03
190 | CAATCCTTCC | 2.31
191 | CAATCGGAGC | 1.03
192 | CAATCTCGTG | 1.04
193 | CAATGATCGT | 1.03
194 | CAATGATGAA | 0.993
195 | CAATGCAGAG | 1
196 | CAATGGCGCC | 0.933
197 | CAATGGCTCC | 1.19
198 | CAATGGGGAT | 0.956
199 | CAATGGTAGA | 1.01
200 | CAATGTGGAT | 0.995
201 | CAATGTTCTT | 0.996
